Measurements published in PubChem BioAssay AID485364 (National Center for Advancing Translational Sciences (NCATS), 2010).
About 11,000 (3.1%) of roughly 360,000 compounds were called active. Inconclusive results, whose numbers are uncertain, are shown with a selection of clear calls. The call rests on the fitted dose curve; in most records, active means well fitted inhibition curve with a large enough effect; inconclusive means small, poorly fitted or top-dose-only effect; inactive means no such curve, though single readings can be large or run the other way. No potency is given beside an inconclusive call; the fits are too rough.

What follows are compounds tested against Schistosoma mansoni thioredoxin glutathione reductase (TGR) (UniProt Q962Y6) (assay: qHTS Assay for the Inhibitors of Schistosoma Mansoni Peroxiredoxins). Details: purified TGR, DTNB reduction, TNB absorbance 405 nm; activity change, negative = inhibition: at 114 µM (top of the series) unless noted.
Outline: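 Kinetic colorimetric format: TGR-catalysed, NADPH-driven DTNB reduction monitored via TNB absorbance. Enzyme dispensed at 20 nM; compound exposure 15 min at room temperature before reaction start.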
Further: nearly all actives have a fitted effect of over 60% in size.
On the % scale 0 is the no-effect control and ±100 the full control effect; potency means the concentration at half of the fitted maximal effect; tags describe the fitted curve by direction and shape.

Row | Compound | Potency | activity change, negative = inhibition
1 | COC(=O)C1C/C(=N/NS(=O)(=O)c2ccc(C)cc2)CS1 (stereo unspecified) | active: 12.6 µM | 
2 | O=C(O)C1=C[C@@H](c2ccc(Br)cc2)C[C@@H](OCc2ccc(CO)cc2)O1 | active: 39.8 µM | 
3 | CC[N+](C)(CC)CCCCOc1ccc2c(c1)C(=O)c1cc(OCCCC[N+](C)(CC)CC)ccc1-2 | active: 5.62 µM | 
4 | O=C(c1cnn(C(=O)COc2ccccc2F)c1)c1cc(F)ccc1O | inconclusive [inhibitor, partial curve] | 
5 | O=c1[nH]cc(C(F)(F)F)cc1NS(=O)(=O)c1ccccc1[N+](=O)[O-] |  | inactive: 5.11%
6 | COc1cccc2cc(C(=O)N(Cc3ccccc3)CC3CCCO3)c(=O)oc12 (stereo unspecified) |  | inactive: -30.2%
7 | O=C(Nc1nc(-c2cccs2)c(-c2ccccc2)s1)c1ccco1 |  | inactive: 0.264%
8 | COc1cccc(-c2nnc3n(Cc4ccc(C)cc4)c(=O)c4ccccc4n23)c1O |  | inactive: -0.403%
9 | CCOC(=O)C1=C(C)OC(N)=C(C#N)C1c1cc2cc(C)ccc2nc1N1CCCCC1 (stereo unspecified) | active: 3.55 µM | 
10 | Cc1nc(NCc2ccccc2)c(C(N)=O)c2c1COC(C)(C)C2 | inconclusive [inhibitor, single point] | 
11 | CCCC(OC(=O)CC1Sc2ccccc2NC1=O)C(=O)NCc1ccco1 (stereo unspecified) | inconclusive [inhibitor, partial curve, poor fit] | 
12 | CCN1CCN(Cc2ccc(NC(=O)c3ccc(C)c(NC(=O)c4csc(-c5ccncc5)n4)c3)cc2C(F)(F)F)CC1 | inconclusive [inhibitor, partial curve] | 
13 | Nc1ccc(C2=Nc3cccc4cccc(c34)N2)cc1 | inconclusive [inhibitor, partial curve] | 
14 | CCN(CC(=O)NC(C)C)Cc1nc2sc3c(c2c(=O)[nH]1)CCC3 | inconclusive [inhibitor, single point] | 
15 | O=C(Cc1ccccc1)N(Cc1cccnc1)c1nc2ccc(Cl)cc2s1 | inconclusive [inhibitor, single point] | 
16 | CN(C)/C=C1\NC(=S)N(c2ccccc2)C1=O | inconclusive [inhibitor, single point] | 
17 | O=c1[nH]c(=S)[nH]c(O)c1/C=C1/C=c2ccccc2=N1 | inconclusive [inhibitor, full curve] | 
18 | CCCCn1c(=O)n(CC(=O)Nc2ccc(C)c(Cl)c2)c(=O)c2c1ncn2Cc1ccco1 | inconclusive [inhibitor, partial curve] | 
19 | CCSc1nnc(-c2ccc(OC)cc2)o1 |  | inactive: 2.36%
20 | Cc1c(C(=O)c2ccccc2)c2ccccn2c1CCC#N | inconclusive [inhibitor, partial curve] | 
21 | Cc1noc(C)c1COc1ccc(C(=O)NCc2ccccn2)cc1 |  | inactive: 16.8%
22 | COc1cc(C(=O)OCC(=O)Nc2cccc(S(=O)(=O)N3CCOCC3)c2)ccc1OCC(C)C |  | inactive: -2.25%
23 | COc1ccc(C2CC(c3ccc(Cl)c(Cl)c3)Nc3nc(N)nn32)cc1 (stereo unspecified) | inconclusive [inhibitor, full curve, poor fit] | 

Row | Compound | Potency | activity change, negative = inhibition
24 | Cc1[nH]c(=O)[nH]c1CN1CCCCC1 | inconclusive [inhibitor, full curve] | 
25 | O=C1CC(SC2=NCCS2)C(=O)N1c1ccc(Cl)cc1 (stereo unspecified) | active: 56.2 µM | 
26 | N#CC1=C(N)SC(N)=C(C#N)C1c1ccnc2ccccc12 | inconclusive [inhibitor, partial curve] | 
27 | CCCC1OC2CC3C4CCC5=CC(=O)C=CC5(C)C4C(O)CC3(C)C2(C(=O)O)O1 (stereo unspecified) | active: 89.1 µM | 
28 | CCN(CC)c1ccc(NC(=O)Nc2cccc3ccccc23)cc1 | inconclusive [inhibitor, partial curve] | 
29 | O=C(CCCc1ccccc1)Nc1ccnn1C1CCN(Cc2ccccn2)CC1 | inconclusive [inhibitor, partial curve] | 
30 | CCNC(=S)Nc1ccc(NC(=O)c2ccccc2O)cc1 | inconclusive [inhibitor, full curve] | 
31 | CC(C)OC(=O)c1cc(NC(=S)Nc2ccc([N+](=O)[O-])cc2)cc(C(=O)OC(C)C)c1 |  | inactive: 2.37%
32 | CCOC(=O)c1cc(-c2ccccc2)n(CCC(=O)Nc2ccc(C(F)(F)F)cc2)c1C |  | inactive: 6.79%
33 | CCN(C(=O)CSc1nnc(-c2ccco2)n1C)c1c(N)n(Cc2ccccc2)c(=O)[nH]c1=O | inconclusive [inhibitor, partial curve] | 
34 | O=C1C2C3C=CC(C3=C3CCCCC3)C2C(=O)N1Cc1ccccc1 (stereo unspecified) | active: 17.8 µM | 
35 | O=S(=O)(CCN(CCS(=O)(=O)C(F)(F)F)CC1CCCO1)C(F)(F)F (stereo unspecified) | inconclusive [inhibitor, partial curve] | 
36 | C=CCNC(=O)C(C#N)c1nc2ccccc2nc1N1CCCCCC1 (stereo unspecified) | inconclusive [inhibitor, full curve] | 
37 | CCOC(=O)c1c(NC(=O)COC(=O)/C=C/c2ccco2)sc2c1CC(C)(C)NC2(C)C | inconclusive [inhibitor, partial curve] | 
38 | Cc1ccc(CCN2CC(C(=O)NCc3ccco3)CC2=O)cc1 (stereo unspecified) | active: 44.7 µM | 
39 | CC(C)c1cc(NC(=O)CCl)on1 | active: 12.6 µM | 
40 | CCN(CC)C(=O)COC(=O)c1cc(-c2ccco2)nc2ccccc12 | active: 1.78 µM | 
41 | CN(Cc1ccncc1)C1CC(=O)N(c2ccc(Cl)cc2)C1=O (stereo unspecified) | inconclusive [inhibitor, partial curve] | 
42 | Cn1c(NCc2ccco2)nc2c1c(=O)n(Cc1ccc(Cl)cc1)c(=O)n2C | inconclusive [inhibitor, partial curve] | 
43 | O=C(CCS(=O)(=O)c1cccc2nsnc12)NC1CCCCC1 | inconclusive [inhibitor, full curve, poor fit] | 
44 | COc1ccc(NC(=O)c2cc(-c3cccs3)on2)cc1 |  | inactive: -1.12%
45 | Clc1ccccc1-c1nc(/C=N/N2CCOCC2)c2ccccn12 | inconclusive [inhibitor, partial curve] | 
46 | COc1cccc(-c2ncc3ccccc3c2COC(=O)CCCC(=O)O)c1 | inconclusive [inhibitor, single point] | 
